Measured values published in the supplement of paper PMC12217912.
The list shows a part of the results. Sequences were assembled here from the parent chain. Values near 0.05 are background.

B1: TEV protease; numbered along this chain (parent)
chain: MGESLFKGPRDYNPISSSICHLTNESDGHTTSLYGIGFGPFIITNKHLFRRNNGTLVVQSLHGVFKVKDTTTLQQHLVDGRDMIIIRMPKDFPPFPQKLKFREPQREERICLVTTNFQTKSMSSMVSDTSCTFPSGDGIFWKHWIQTKDGQCGSPLVSTRDGFIVGIHSASNFTNTNNYFTSVPKNFMELLTNQEAQQWVSGWRLNADSVLWGGHKVFMVKPEEPFQPVKEATQL

Variants of: B1
Assay: raw area under fraction-flipped curve 0-4 h after induction (AUC4h, not background-subtracted), DNA-recorder readout of cleavage of the substrate (dimensionless); higher = more cleavage of the substrate by the protease variant
Conditions: temperature: 34 °C; time window: 0-4 h after rhamnose induction
Method: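 In vivo DNA recorder in E. coli TOP10(DE3) ΔrhaA at 34 °C. Each TEVp single-site mutant (parent TEVp 0) is paired with a single-site variant of the 7-mer TEVs (canonical ENLYFQ|S). The substrate sits between flexible linkers in a Bxb1-sfGFP-TEVs-SsrA fusion, so cleavage stabilises Bxb1 and speeds flipping of a recombination array, read by NGS. The value is the raw area under the fraction-flipped curve over 0-4 h after rhamnose induction (AUC4h), with ≥20 reads per time point. It is not background-subtracted; inactive controls average about 0.047.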
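Also: Bxb1 expression induced with 0.2% (w/v) L-rhamnose at OD600 near 0.5, cultures sampled hourly, flipped fraction per protease–substrate barcode pair counted by paired-end Illumina sequencing.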

Variant	area with substrate ENLYFQA	area with substrate ENLYFQK	area with substrate ENLYFQP	area with substrate ENLYFQR	area with substrate ENLYFQS	area with substrate ENLYFQC	area with substrate ENLYFQD	area with substrate ENLYFQG	area with substrate ENLYFQH	area with substrate ENLYFQM	area with substrate ENLYFQN	area with substrate ENLYFQQ	area with substrate ENLYFQT	area with substrate ENLYFQW	area with substrate ENLYFQY	area with substrate ENLYFQF	area with substrate ENLYFQI	area with substrate ENLYFQV	area with substrate ENLYFQL	area with substrate ENLYFQE
MGESLFKGPRDYNPISSSICHLTNESDGHTTSLYGIGFGPFIITNKHLFRRNNGTLVVQSLHGVFKVKDTTTLQQHLVDGRDMIIIRMPKDFPPFPQKLKFREPQREERICLVTTNFQTKSMSSMCSDTSCTFPSGDGIFWKHWIQTKDGQCGSPLVSTRDGFIVGIHSASNFTNTNNYFTSVPKNFMELLTNQEAQQWVSGWRLNADSVLWGGHKVFMVKPEEPFQPVKEATQL [V126C]	0.0932	0.0642	0.0219	0.046	0.11															
MGESLFKGPRDYNPISSSICHLTNESDGHTTSLYGIGFGPFIITNKHLFRRNNGTLVVQSLHGVFKVKDTTTLQQHLVDGRDMIIIRMPKDFPPFPQKLKFREPQREERICLVRTNFQTKSMSSMVSDTSCTFPSGDGIFWKHWIQTKDGQCGSPLVSTRDGFIVGIHSASNFTNTNNYFTSVPKNFMELLTNQEAQQWVSGWRLNADSVLWGGHKVFMVKPEEPFQPVKEATQL [T114R]	0.111	0.0657	0.0623	0.082	0.119	0.128	0.0897	0.0891	0.0968	0.137	0.105	0.0664	0.0695	0.071	0.055					
MGESLFKGPRDYNPISSSICHLTNESDGHTTSLYGIGFGPFIITNKHLFRRNNGTLVVQSLHGVFKVKDTTTLQQHLVDGRDMIIIRMPKDFPPFPQKLKFREPQREERICLVTTNFQTKSMNSMVSDTSCTFPSGDGIFWKHWIQTKDGQCGSPLVSTRDGFIVGIHSASNFTNTNNYFTSVPKNFMELLTNQEAQQWVSGWRLNADSVLWGGHKVFMVKPEEPFQPVKEATQL [S123N]	0.105	0.0652		0.0561	0.11	0.107	0.0747	0.161	0.106	0.101	0.0872				0.0767	0.0922	0.0592	0.089		
MGESLFKGPRDYNPISSSICHLTNESDGHTTSLYGIGFGPFIITNKHLFRRNNGTLVVQSLHGVFKVKDTTTLQQHLVDGRDMIIIRMPKDFPPFPQKLKFREPQREERICLSTTNFQTKSMSSMVSDTSCTFPSGDGIFWKHWIQTKDGQCGSPLVSTRDGFIVGIHSASNFTNTNNYFTSVPKNFMELLTNQEAQQWVSGWRLNADSVLWGGHKVFMVKPEEPFQPVKEATQL [V113S]	0.0614	0.0404			0.0652	0.0799		0.0689		0.0616	0.0351		0.0461			0.0409	0.0405			
MGESLFKGPRDYNPISSSICHLTNESDGHTTSLYGIGFGPFIITNKHLFRRNNGTLVVQSLHGVFKVKDTTTLQQHLVDGRDMIIIRMPKDFPPFPQKLKFREPQREERICLVTTLFQTKSMSSMVSDTSCTFPSGDGIFWKHWIQTKDGQCGSPLVSTRDGFIVGIHSASNFTNTNNYFTSVPKNFMELLTNQEAQQWVSGWRLNADSVLWGGHKVFMVKPEEPFQPVKEATQL [N116L]	0.104	0.0606		0.0681	0.105		0.089		0.107	0.104			0.0605	0.0862	0.0618		0.0964		0.0582	
MGESLFKGPRDYNPISSSICHLTNESDGHTTSLYGIGFGPFIITNKHLFRRNNGTLVVQSLHGVFKVKDTTTLQQHLVDGRDMIIIRMPKDFPPFPQKLKFREPQREERICLVTTNFQTKSMSSMVSDTSCTPPSGDGIFWKHWIQTKDGQCGSPLVSTRDGFIVGIHSASNFTNTNNYFTSVPKNFMELLTNQEAQQWVSGWRLNADSVLWGGHKVFMVKPEEPFQPVKEATQL [F133P]	0.0642	0.0388	0.0505	0.0569	0.0689	0.0758	0.0752	0.0381		0.0602	0.0618		0.0572		0.061		0.0391		0.0509	
MGESLFKGPRDYNPISSSICHLTNESDGHTTSLYGIGFGPFIITNKHLFRRNNGTLVVQSLHGVFKVKDTTTLQQHLVDGRDMIIIRMPKDFPPFPQKLKFREPQREERICLVTTNFQTKSMSSMVSDTSCTMPSGDGIFWKHWIQTKDGQCGSPLVSTRDGFIVGIHSASNFTNTNNYFTSVPKNFMELLTNQEAQQWVSGWRLNADSVLWGGHKVFMVKPEEPFQPVKEATQL [F133M]	0.0904			0.0637	0.11	0.116	0.105	0.115	0.0913	0.0815		0.0745	0.0714	0.0592			0.0537	0.0637	0.0583	
MGESLFKGPRDYNPISSSICHLTNESDGHTTSLYGIGFGPFIITNKHLFRRNNGTLVVQSLHGVFKVKDTTTLQQHLVDGRDMIIIRMPKDFPPFPQKLKFREPQREERICLVTTNFQTKSMSSMVSDTSCTFWSGDGIFWKHWIQTKDGQCGSPLVSTRDGFIVGIHSASNFTNTNNYFTSVPKNFMELLTNQEAQQWVSGWRLNADSVLWGGHKVFMVKPEEPFQPVKEATQL [P134W]	0.0869	0.0205	0.0716		0.0683	0.0643	0.0504	0.0594		0.0646	0.0647				0.0476		0.0389			
MGESLFKGPRDYNPISSSICHLTNESDGHTTSLYGIGFGPFIITNKHLFRRNNGTLVVQSLHGVFKVKDTTTLQQHLVDGRDMIIIRMPKDFPPFPQKLKFREPQREERICLVTTNFQTKSMSSMVSDTSCTFPFGDGIFWKHWIQTKDGQCGSPLVSTRDGFIVGIHSASNFTNTNNYFTSVPKNFMELLTNQEAQQWVSGWRLNADSVLWGGHKVFMVKPEEPFQPVKEATQL [S135F]	0.0643	0.0584	0.0617	0.0414	0.0648	0.0505	0.0643	0.0637	0.0522		0.0596		0.0624	0.0689			0.0435		0.0582	0.053
MGESLFKGPRDYNPISSSICHLTNESDGHTTSLYGIGFGPFIITNKHLFRRNNGTLVVQSLHGVFKVKDTTTLQQHLVDGRDMIIIRMPKDFPPFPQKLKFREPQREERICLVTTNFQTKSMSSMVSDTECTFPSGDGIFWKHWIQTKDGQCGSPLVSTRDGFIVGIHSASNFTNTNNYFTSVPKNFMELLTNQEAQQWVSGWRLNADSVLWGGHKVFMVKPEEPFQPVKEATQL [S130E]	0.083		0.0397	0.066	0.0862			0.0726	0.0472						0.0898					
MGESLFKGPRDYNPISSSICHLTNESDGHTTSLYGIGFGPFIITNKHLFRRNNGTLVVQSLHGVFKVKDTTTLQQHLVDGRDMIIIRMPKDFPPFPQKLKFREPQREERICLVTTNFQTKSMSSMVSDTSCCFPSGDGIFWKHWIQTKDGQCGSPLVSTRDGFIVGIHSASNFTNTNNYFTSVPKNFMELLTNQEAQQWVSGWRLNADSVLWGGHKVFMVKPEEPFQPVKEATQL [T132C]	0.112	0.0463	0.0804	0.0687	0.103	0.117		0.116		0.0975	0.0871	0.0607	0.0657	0.0104			0.0447	0.0559	0.0547	
MGESLFKGPRDYNPISSSICHLTNESDGHTTSLYGIGFGPFIITNKHLFRRNNGTLVVQSLHGVFKVKDTTTLQQHLVDGRDMIIIRMPKDFPPFPQKLKFREPQREERICLVTTNFQTKSMSSMVLDTSCTFPSGDGIFWKHWIQTKDGQCGSPLVSTRDGFIVGIHSASNFTNTNNYFTSVPKNFMELLTNQEAQQWVSGWRLNADSVLWGGHKVFMVKPEEPFQPVKEATQL [S127L]	0.126	0.0564	0.0526	0.0533	0.116	0.124		0.104	0.0916		0.0749		0.0835				0.0703		0.0435	
MGESLFKGPRDYNPISSSICHLTNESDGHTTSLYGIGFGPFIITNKHLFRRNNGTLVVQSLHGVFKVKDTTTLQQHLVDGRDMIIIRMPKDFPPFPQKLKFREPQREERICLVTTNFQTKSMSSMVIDTSCTFPSGDGIFWKHWIQTKDGQCGSPLVSTRDGFIVGIHSASNFTNTNNYFTSVPKNFMELLTNQEAQQWVSGWRLNADSVLWGGHKVFMVKPEEPFQPVKEATQL [S127I]	0.103	0.0604	0.082	0.048	0.104	0.113	0.0733	0.117	0.091	0.0915		0.0673	0.0656	0.0652	0.0806	0.0628	0.064	0.0536	0.066	
MGESLFKGPRDYNPISSSICHLTNESDGHTTSLYGIGFGPFIITNKHLFRRNNGTLVVQSLHGVFKVKDTTTLQQHLVDGRDMIIIRMPKDFPPFPQKLKFREPQREERICLVTTNFQTKSVSSMVSDTSCTFPSGDGIFWKHWIQTKDGQCGSPLVSTRDGFIVGIHSASNFTNTNNYFTSVPKNFMELLTNQEAQQWVSGWRLNADSVLWGGHKVFMVKPEEPFQPVKEATQL [M122V]	0.159	0.0492		0.0615	0.103	0.127		0.103		0.107	0.0778		0.0589	0.0712	0.0921		0.0688			
MGESLFKGPRDYNPISSSICHLTNESDGHTTSLYGIGFGPFIITNKHLFRRNNGTLVVQSLHGVFKVKDTTTLQQHLVDGRDMIIIRMPKDFPPFPQKLKFREPQREERICLVTTNFQTKSISSMVSDTSCTFPSGDGIFWKHWIQTKDGQCGSPLVSTRDGFIVGIHSASNFTNTNNYFTSVPKNFMELLTNQEAQQWVSGWRLNADSVLWGGHKVFMVKPEEPFQPVKEATQL [M122I]	0.111	0.0816		0.052	0.104		0.0742	0.144			0.0836			0.0591			0.0764		0.0606	
MGESLFKGPRDYNPISSSICHLTNESDGHTTSLYGIGFGPFIITNKHLFRRNNGTLVVQSLHGVFKVKDTTTLQQHLVDGRDMIIIRMPKDFPPFPQKLKFREPQREERICLVTTNEQTKSMSSMVSDTSCTFPSGDGIFWKHWIQTKDGQCGSPLVSTRDGFIVGIHSASNFTNTNNYFTSVPKNFMELLTNQEAQQWVSGWRLNADSVLWGGHKVFMVKPEEPFQPVKEATQL [F117E]	0.12				0.0887	0.113				0.0782	0.074		0.0644	0.0686	0.0953		0.0658	0.0593		
MGESLFKGPRDYNPISSSICHLTNESDGHTTSLYGIGFGPFIITNKHLFRRNNGTLVVQSLHGVFKVKDTTTLQQHLVDGRDMIIIRMPKDFPPFPQKLKFREPQREERICLVTTNFQTKIMSSMVSDTSCTFPSGDGIFWKHWIQTKDGQCGSPLVSTRDGFIVGIHSASNFTNTNNYFTSVPKNFMELLTNQEAQQWVSGWRLNADSVLWGGHKVFMVKPEEPFQPVKEATQL [S121I]	0.0921	0.066			0.095		0.0777	0.0993	0.0869		0.075	0.0641	0.0665	0.0616		0.0822		0.0723	0.0703	
MGESLFKGPRDYNPISSSICHLTNESDGHTTSLYGIGFGPFIITNKHLFRRNNGTLVVQSLHGVFKVKDTTTLQQHLVDGRDMIIIRMPKDFPPFPQKLKFREPQREERICLVTTNFQTKKMSSMVSDTSCTFPSGDGIFWKHWIQTKDGQCGSPLVSTRDGFIVGIHSASNFTNTNNYFTSVPKNFMELLTNQEAQQWVSGWRLNADSVLWGGHKVFMVKPEEPFQPVKEATQL [S121K]	0.117	0.0653	0.0583	0.0637	0.114	0.126	0.0625	0.105	0.0851	0.0878	0.0738		0.0713		0.0754		0.0601		0.0677	0.0743
